Whole data set: some 81,000 sequences, median “one-hybrid fitness for binding NBS DNA” near -0.1, cut for the highest 2% near 0.36. Some of the results follow.
B1: Caulobacter ParB omega fusion; a variant is named by its letters at X, in order, B8GW30 (parent)
chain: MESVVVGEPGMSEGRRGLGRGLSALLGEVDAAPAQAPGEQLGGSREAPIEILQRNPDQPRRTFREEDLEDLSNSIREKGVLQPILVRPSPDTAGEYQIVAGERAWRAAQRAGLKTVPIMVRELDDLAVLEIGIIENVQRADLNVLEEALSYKVLMEKFERTQENIAQTIGKSXSHVANXMRLLXLPDEVQSYLVSGELTAXHARAIAAAADPVALAKQIIEGGLSVRETEALARKAPNLSAGKSKGGRPPRVKDTDTQALESDLSSVLGLDVSIDHRGSTGTLTITYATLEQLDDLCNRLTRGI

Variants of: B1
Experiment: one-hybrid fitness for binding NBS DNA (the Noc-binding site; scaled: cognate 1, non-cognate 0); higher = stronger binding
Conditions: with NBS DNA site
In short: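 On M9-minus-histidine containing 0.1 mM IPTG and 5 mM 3-AT, E. coli USO cells with a HIS3 reporter, site 19 bp from the promoter, grew 48 hours at 37°C to select Caulobacter ParB libraries randomised at four specificity codons. Plasmids from before and after were Illumina-sequenced, with three replicate libraries pooled and variants under 10 reads left out. Fitness is the log change in variant-to-wild-type read ratio, rescaled against cognate and non-cognate.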

| Variant | one-hybrid fitness for binding NBS DNA |
| --- | --- |
| QTFI | ≤ 0.2 |
| MDSK | ≤ 0.2 |
| RNIM | ≤ 0.2 |
| SAHE | ≤ 0.2 |
| VSPC | ≤ 0.2 |
| FEVT | ≤ 0.2 |
| CTLT | ≤ 0.2 |
| RVYY | ≤ 0.2 |
| HYCS | ≤ 0.2 |
| EPHG | ≤ 0.2 |
| LYSL | ≤ 0.2 |
| LPAC | ≤ 0.2 |
| ELGG | ≤ 0.2 |
| PVTY | ≤ 0.2 |
| PGLC | ≤ 0.2 |
| LVDT | ≤ 0.2 |
| NECV | ≤ 0.2 |
| VMTC | ≤ 0.2 |
| QQGA | 0.388 |
| LYPK | ≤ 0.2 |
| AAEI | ≤ 0.2 |
| HGTC | ≤ 0.2 |
| RQLI | ≤ 0.2 |
| RNWI | ≤ 0.2 |
| TRMT | 0.256 |
| QGKA | ≤ 0.2 |

| Variant | one-hybrid fitness for binding NBS DNA |
| --- | --- |
| EYTP | ≤ 0.2 |
| AFTR | ≤ 0.2 |
| WAMS | ≤ 0.2 |
| LIHI | ≤ 0.2 |
| IQVG | ≤ 0.2 |
| TLMF | ≤ 0.2 |
| KRHM | ≤ 0.2 |
| GIAG | ≤ 0.2 |
| WVKS | ≤ 0.2 |
| HCPW | ≤ 0.2 |
| LRKH | ≤ 0.2 |
| RELI | ≤ 0.2 |
| DYHN | ≤ 0.2 |
| RNTV | ≤ 0.2 |
| KPQC | ≤ 0.2 |
| DSTK | ≤ 0.2 |
| HLVL | ≤ 0.2 |
| ANLG | ≤ 0.2 |
| SIYI | ≤ 0.2 |
| PKYR | ≤ 0.2 |
| ANTL | ≤ 0.2 |
| QLSL | ≤ 0.2 |
| WYAT | ≤ 0.2 |
| CSHS | ≤ 0.2 |
| QSML | ≤ 0.2 |
| RWEN | ≤ 0.2 |

| Variant | one-hybrid fitness for binding NBS DNA |
| --- | --- |
| EWAS | ≤ 0.2 |
| TLQR | ≤ 0.2 |
| LSKE | ≤ 0.2 |
| LTWE | ≤ 0.2 |
| RSEM | ≤ 0.2 |
| KMYC | ≤ 0.2 |
| AKVY | ≤ 0.2 |
| EGTV | ≤ 0.2 |
| QIYN | ≤ 0.2 |
| EIYC | ≤ 0.2 |
| GRAY | ≤ 0.2 |
| GELN | ≤ 0.2 |
| KPGV | ≤ 0.2 |
| GLEC | ≤ 0.2 |
| WLTK | ≤ 0.2 |
| IRSI | ≤ 0.2 |
| YSLM | ≤ 0.2 |
| VKLA | ≤ 0.2 |
| TIVT | ≤ 0.2 |
| EEPA | ≤ 0.2 |
| VTVI | ≤ 0.2 |
| EDVN | ≤ 0.2 |
| NVSR | ≤ 0.2 |
| PYTQ | ≤ 0.2 |
| PART | ≤ 0.2 |
| TTPP | ≤ 0.2 |

| Variant | one-hybrid fitness for binding NBS DNA |
| --- | --- |
| KRFY | ≤ 0.2 |
| IEGG | ≤ 0.2 |
| PQHW | ≤ 0.2 |
| THRD | ≤ 0.2 |
| SSTM | ≤ 0.2 |
| ILPR | ≤ 0.2 |
| QYSG | ≤ 0.2 |
| YRTN | ≤ 0.2 |
| TRPQ | ≤ 0.2 |
| KNPR | ≤ 0.2 |
| GTLS | ≤ 0.2 |
| QQII | ≤ 0.2 |
| QKAH | ≤ 0.2 |
| KTKG | ≤ 0.2 |
| KSEI | ≤ 0.2 |
| PLLR | ≤ 0.2 |
| LYPL | ≤ 0.2 |
| QQQP | ≤ 0.2 |
| NQDS | ≤ 0.2 |
| RRRV | 0.655 |
| RTDF | ≤ 0.2 |
| SSNA | ≤ 0.2 |
| KRAM | ≤ 0.2 |
| RYWT | 0.281 |
| GQQR | ≤ 0.2 |
| YFLW | ≤ 0.2 |

| Variant | one-hybrid fitness for binding NBS DNA |
| --- | --- |
| SELM | ≤ 0.2 |
| HTRQ | ≤ 0.2 |
| DQLF | ≤ 0.2 |
| CITL | ≤ 0.2 |
| RYAL | ≤ 0.2 |
| ARRR | 0.31 |
| QTPD | ≤ 0.2 |
| QMLW | ≤ 0.2 |
| DCPC | ≤ 0.2 |
| RMFW | ≤ 0.2 |
| CHMG | ≤ 0.2 |
| MVRA | ≤ 0.2 |
| LRKI | ≤ 0.2 |
| RRAW | ≤ 0.2 |
| KGGT | ≤ 0.2 |
| LASG | ≤ 0.2 |
| DYVS | ≤ 0.2 |
| KEEG | ≤ 0.2 |
| QHID | ≤ 0.2 |
| IMYS | ≤ 0.2 |
| ACKT | ≤ 0.2 |
| ITCL | ≤ 0.2 |
| APKA | ≤ 0.2 |
| QAAQ | ≤ 0.2 |
| SRLW | ≤ 0.2 |
| HTNN | ≤ 0.2 |

| Variant | one-hybrid fitness for binding NBS DNA |
| --- | --- |
| NMRL | ≤ 0.2 |
| GSYR | ≤ 0.2 |
| TRKL | ≤ 0.2 |
| NPHR | ≤ 0.2 |
| VIKC | ≤ 0.2 |
| LWDG | ≤ 0.2 |
| RKPQ | ≤ 0.2 |
| YQIT | ≤ 0.2 |
| YFFS | ≤ 0.2 |
| HCNI | ≤ 0.2 |
| KSKA | ≤ 0.2 |
| PMIG | ≤ 0.2 |
| PMYN | ≤ 0.2 |
| CTKR | 0.263 |
| IDST | ≤ 0.2 |
| RHCA | ≤ 0.2 |
| PPRD | ≤ 0.2 |
| AAFF | ≤ 0.2 |
| TISI | ≤ 0.2 |
| LRGG | ≤ 0.2 |
| RPAA | ≤ 0.2 |
| REWI | ≤ 0.2 |
| LMKS | ≤ 0.2 |
